Out of some 110,000 compounds screened, about 230 (0.21%) showed an effect of 50% or more. This is one part of the list.
Target: DPAP1 (Plasmodium falciparum, UniProt Q8IIJ9)
Assay: primary screen, percent inhibition; read by cleavage of a fluorogenic dipeptide substrate; higher = more effect of the substance
Design: species or system P. falciparum D10 trophozoite lysates; single well
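Also: 30 min substrate incubation versus DMSO and 10 µM JCP410 controls.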

DPAP1, sequence (Q8IIJ9 whole entry, looked up): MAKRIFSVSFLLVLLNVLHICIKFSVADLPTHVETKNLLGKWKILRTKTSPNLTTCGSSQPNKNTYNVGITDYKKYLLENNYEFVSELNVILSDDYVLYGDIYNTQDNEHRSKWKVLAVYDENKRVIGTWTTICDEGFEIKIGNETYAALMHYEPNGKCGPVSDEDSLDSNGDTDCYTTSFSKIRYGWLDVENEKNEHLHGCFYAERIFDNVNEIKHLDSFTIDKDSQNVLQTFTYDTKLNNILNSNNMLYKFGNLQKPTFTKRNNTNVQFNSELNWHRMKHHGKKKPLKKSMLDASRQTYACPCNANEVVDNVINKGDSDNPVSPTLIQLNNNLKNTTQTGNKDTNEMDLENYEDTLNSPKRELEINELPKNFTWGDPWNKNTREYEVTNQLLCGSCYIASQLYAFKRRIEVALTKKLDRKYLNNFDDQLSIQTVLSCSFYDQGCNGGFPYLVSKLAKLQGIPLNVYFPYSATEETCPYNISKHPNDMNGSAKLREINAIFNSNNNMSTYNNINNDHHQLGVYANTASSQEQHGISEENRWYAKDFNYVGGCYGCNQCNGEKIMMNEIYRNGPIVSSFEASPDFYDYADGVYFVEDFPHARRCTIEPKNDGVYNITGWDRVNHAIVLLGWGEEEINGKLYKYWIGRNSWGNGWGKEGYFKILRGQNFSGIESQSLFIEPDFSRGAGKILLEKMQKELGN

Row | Compound | % Inhibition @ 10 uM [%]
1 | COc1ccc(C(=O)O/N=C2/C=C(C(C)C)C(=O)C=C2C)cc1Br | -2.14
2 | COc1ccc(OC)c(NC2=C(Cl)C(=O)N(c3ccccc3C)C2=O)c1 | 2.76
3 | C=C(C)Cn1c(O)nc2ccccc21 | 1.12
4 | COc1cc(C(=O)N2CCN(C(=O)c3cc(-c4ccc(C)cc4C)[nH]n3)CC2)cc(OC)c1OC | 1.25
5 | CCOC(=O)N1CCN(CC(O)COc2ccc(C(C)(C)C)cc2)CC1 (centres unmarked) | -0.822
6 | CCCC(=O)Nc1ccccc1NC(=O)c1cc(Cl)ccc1OC | 0.235
7 | O=C(O/N=C(/c1ccccc1)c1ccncc1)c1ccc(F)cc1 | -3.75
8 | O=C(O)c1cc(NS(=O)(=O)c2ccc(Cl)cc2)cc(C(=O)O)c1 | -4.59
9 | CN1CCC(Oc2ccc(Sc3ccccc3)cc2)CC1 | -0.872
10 | Cc1ccccc1NC(=O)CN1CCOCC1 | -0.415
11 | C=CCNc1nc(NCC=C)nc(OC)n1 | -2.51
12 | O=C(COc1ccccc1Cl)Nc1ccc(S(=O)(=O)N2CCCCCC2)cc1 | 1.89
13 | CN1CCC(NC2CCCCCC2)CC1 | -3.6
14 | COc1cc(Br)c(Cc2nc3ccccc3[nH]2)cc1OC | 6
15 | COc1ccc(OC)c(NC(=O)c2ccc(C)c(Br)c2)c1 | -8.64
16 | COc1cc(C2C3=C(O)CCCC3=Nc3ccc4nc(C)ccc4c32)cc(OC)c1OC (centres unmarked) | 1.43
17 | CN(Cc1ccccc1)S(=O)(=O)c1ccc(F)cc1 | -2.6
18 | CCOC(=O)N1CCN(C(=O)CSc2nnc(Cc3cccn3C)n2-c2ccc(C)cc2)CC1 | -3.95
19 | O=C(Nc1cc(F)ccc1F)C12CC3CC(C1)CC(n1cncn1)(C3)C2 | -2.88
20 | Brc1ccc(CN2CCN(c3ccccc3)CC2)cc1 | -1.77
21 | O=C(c1ccccc1)c1ccc(C(=O)c2ccccc2)cc1 | -3.04
22 | O=C(CC(NCCN1CCOCC1)C(=O)O)Nc1ccc(Cl)c(Cl)c1 (centres unmarked) | 1.94
23 | COc1ccccc1CNCCCSc1nnnn1C | -1.11
24 | Cc1nc(O)nc(O)c1S(=O)(=O)N1CCC(C(=O)NCc2ccccc2Cl)CC1 | 2.35
25 | CC(CCc1ccccc1)NC(=O)CCCc1nnc2n(C)c(=O)c3sccc3n12 (centres unmarked) | -5.35
26 | O=C(NCc1ccccc1)c1c(O)nc2ccccc2c1O | -0.795

Row | Compound | % Inhibition @ 10 uM [%]
27 | CCOC(=O)c1c(S(=O)(=O)NCc2ccc(OC)cc2)c(C)n(C)c1C | 6.05
28 | O=C(c1cc2nc(-c3ccccc3)cc(C(F)(F)F)n2n1)N1CCN(Cc2ccccc2)CC1 | -0.467
29 | Cc1ccc(CNC(=O)c2cc(C)nc3ccccc23)cc1 | 4.36
30 | Cc1cccc(C)c1NC(=O)c1c(-c2ccccc2)noc1C | 0.408
31 | COc1ccc(Oc2c(C(F)(F)F)oc3cc(OC)ccc3c2=O)cc1 | 2.02
32 | COc1cccc(-c2nc3c(c(SCc4ccncc4)n2)Cc2c(CO)cnc(C)c2O3)c1 | 2.97
33 | Oc1oc(-c2cccc3ccccc23)nc1/C=N/c1nccs1 | -2.74
34 | CC(NC(=O)c1ccc([N+](=O)[O-])cc1)c1ccccc1 (centres unmarked) | -6.99
35 | CCOc1ccc(C2C(C#N)=C(N)Oc3[nH]nc(-c4ccc(OC)cc4)c32)cc1 (centres unmarked) | 0.343
36 | CCCSc1nc(-c2ccccc2)cc(-c2ccc(OC)cc2)c1C#N | -7.35
37 | COC(=O)c1cccc(NC(=O)C(C)Oc2ccc(C(C)(C)C)cc2)c1 (centres unmarked) | -1.36
38 | CCn1c(C)cc(/C=C2/NC(=O)N(c3cccc(Cl)c3)C2=O)c1C | 1.92
39 | O=C(O)c1cc(Cl)c(Cl)cc1C(=O)Nc1ccc(Cl)cc1 | -3.78
40 | COc1cccc(C2C(C(=O)N3CCCCC3)=C(C)Nc3nc4ccccc4n32)c1OC (centres unmarked) | -3.13
41 | CC1=CC(=C2C(=O)NC(=O)NC2=O)C=C(C(F)(F)F)N1Cc1ccco1 | 20.4
42 | CCOc1ccc2nc(SCC(=O)Nc3nc(OC)cc(OC)n3)sc2c1 | -2.8
43 | CC(=O)N1N=C2C3CCN(CC3)C2C1c1cccs1 (centres unmarked) | -0.0235
44 | CCS(=O)(=O)NCCc1cc2cc(C)c(C)cc2nc1O | -3.51
45 | Cc1c(CCC(=O)O)c(O)n2c(nc3ccccc32)c1C#N | -1.72
46 | Cc1ccc(NC(=O)N2CCN(C)CC2)cc1 | -5.68
47 | CCc1ccccc1S(=O)(=O)Cc1ccc(C(=O)NCc2ccc3c(c2)OCO3)o1 | -4.96
48 | CS(=O)(=O)N(CC(=O)Nc1ccc(Cl)c(Cl)c1)Cc1ccccc1 | 1.93
49 | Cn1c(=O)c2c(nc(N3CCN(CCO)CC3)n2CCCc2ccccc2)n(C)c1=O | -8.53
50 | COc1ccc(-c2cc(C(F)F)n3ncc(C(=O)N4CCC(Cc5ccccc5)CC4)c3n2)cc1 | -9.37
51 | COc1ccc(Br)cc1C1=N/C(=C\c2cc(OC)c(OC)c(OC)c2)C(=O)O1 | -6.82
52 | COc1ccc(-c2nc(N3CCC(C)CC3)nc(O)c2C#N)cc1 | 3.34

Row | Compound | % Inhibition @ 10 uM [%]
53 | Cc1cc(C)c(Cn2c(C)c(CNC3CCCCC3)c(C(=O)O)c2C)c(C)c1 | 4.53
54 | COc1ccccc1C(=O)N1CCN(c2ccc3nnc(-c4ccccc4)n3n2)CC1 | 0.291
55 | O=C(Cn1ncc2c1-c1ccccc1OC2)N1CCOCC1 | -1.66
56 | COc1ccccc1-c1ccc(C=C(C(C)=O)C(C)=O)o1 | -5.28
57 | COc1ccc(C(=O)Nc2sc3c(c2C#N)CCCCC3)cc1 | -1.06
58 | CCOc1ccc(NC=C2C(=O)CC(c3ccccc3)CC2=O)cc1 (centres unmarked) | 3.99
59 | Cc1ccc2c(c1)-c1onc(C(=O)NCCCOC(C)C)c1CO2 | 1.97
60 | COc1ccc(NC(=O)OCC2c3ccccc3-c3ccccc32)cc1 | -4.01
61 | COc1ccc(NCc2cccc(OC)c2)cc1 | 1.38
62 | COc1ccc(CNS(=O)(=O)c2cccc3nsnc23)cc1 | 1.2
63 | COc1ccc(C2=N/C(=C\c3ccccc3OC)C(=O)O2)cc1 | -2.54
64 | Cc1nnc(NC(=O)c2nc(S(C)(=O)=O)ncc2Cl)s1 | -4.64
65 | CCOC(=O)c1sc2nc(C)cc(C(F)(F)F)c2c1N | 0.605
66 | CCCCN(C)Cc1cc(Cl)cc(Cl)c1O | 2.1
67 | CC(C)Cc1nnc2sc(NC(=O)c3ccc(F)cc3)nn12 | 6.38
68 | C=CCn1c(SCC(=O)Nc2cc(C)ccc2OC)nc2sc(C)cc2c1=O | -3.16
69 | COc1ccc(/C=C/C2=NC(=C\c3cccc4ccccc34)/C(=O)O2)cc1 | 3.9
70 | c1ccc(CN2CCN(c3ncnc4sc5c(c34)CCC5)CC2)cc1 | 9.65
71 | COc1ccc(C(=O)C[N+]2=C(N)CCC2)cc1 | -5.85
72 | CC(C)C[C@H](NC(=O)c1cc(-c2ccccc2Cl)cs1)C(=O)NCC#N | -3.48
73 | CCc1c(O)nc(SC2CC(=O)N(c3ccccc3)C2=O)nc1O (centres unmarked) | 5.42
74 | Cc1cc(C)nc(NS(=O)(=O)c2ccc(NC(=O)C(C)Oc3ccc(Cl)cc3Cl)cc2)n1 (centres unmarked) | -2.74
75 | N#CC1=C(N)Oc2c(ccc3ccccc23)C1c1cccc(Br)c1 (centres unmarked) | -0.986
76 | CCC(C(=O)NCC1CCCN1CC)n1nc(C)c2sc3ccccc3c2c1=O (centres unmarked) | -4.09
77 | COc1ccc(NC(=O)c2cc(S(=O)(=O)N3CCCCC3)ccc2Br)cc1 | -1.36
78 | CCN1c2ccccc2NC2C1C(C(C)=O)C(=O)N2c1ccc(Cl)cc1 (centres unmarked) | 0.177

Row | Compound | % Inhibition @ 10 uM [%]
79 | Cc1cccc(C(=O)OC(C)CN2C(C)CCCC2C)c1 (centres unmarked) | -5.51
80 | CC1CC(=O)C2=C(C1)OC(N)=C(C#N)C2c1ccc(Cl)cc1Cl (centres unmarked) | -3.79
81 | CCS(=O)(=O)c1ccsc1S(=O)(=O)CC | 3.06
82 | CC1=C(C(=O)Nc2ccccc2F)C(c2ccc3c(c2)OCO3)C2=C(O)CCCC2=N1 (centres unmarked) | 6.97
83 | CCOC(=O)c1cccc(NC(=O)CCc2ccccc2)c1 | -2.67
84 | Cc1ccc(S(=O)(=O)N2CCCC(C(=O)NC3CCCCC3)C2)cc1 (centres unmarked) | 0.635
85 | CCOc1ccccc1C(=O)Nc1sc2c(c1C(N)=O)CCCC2 | -1.44
86 | O=C(O)/C=C/C(=O)Nc1cc([N+](=O)[O-])ccc1F | -0.0648
87 | COc1ccc(CCNC(=O)CSc2nc3nncc-3c(O)n2-c2ccccc2OC)cc1OC | -1.99
88 | Cc1noc(NS(=O)(=O)c2ccc(NC(=O)C3CC3)cc2)c1C | -3.24
89 | O=S(=O)(NC1CCCCC1N1CCC(O)CC1)c1ccc(Cl)cc1 (centres unmarked) | -0.671
90 | Cc1ccc(-c2noc(CSc3nnc(-c4ccncc4)n3-c3ccc(C)cc3)n2)cc1 | 2.89
91 | Cn1c(=O)c(Sc2ccccc2C(=O)O)c(O)c2ccccc21 | 4.05
92 | Oc1ccc(C2CC(c3ccccc3O)=NN2)cc1 (centres unmarked) | 3.79
93 | COc1ccc(C(=C(Cl)Cl)c2ccc(OC)cc2)cc1 | 8.97
94 | CS(=O)(=O)N(CC(=O)NC1CC2CCC1C2)c1ccccc1Cl (centres unmarked) | -2.74
95 | CCOC(=O)c1cnc2nc(Cc3ccccc3)nn2c1O | -0.671
96 | CCCN1CCC(N2CCN(Cc3ccccc3)CC2)CC1 | -1.81
97 | CC1CCCC(NCc2c(C(=O)O)n(Cc3ccccc3F)c3ccccc23)C1C (centres unmarked) | 1.93
98 | COc1ccccc1NC1=NS(=O)(=O)c2ccccc21 | 1.13
99 | COC(=O)c1c(N)c(C#N)c(C)n1-c1ccccc1 | -2.44
100 | COc1ccccc1N1CCN(S(=O)(=O)c2ccc(SC)cc2)CC1 | -10.7
101 | Cn1c(=O)n(C)c2cc(/C=C3/SC(=O)N(Cc4ccccc4F)C3=O)ccc21 | -1.22

Reference: PMC6919601, “Identification of Plasmodium dipeptidyl aminopeptidase allosteric inhibitors by high throughput screening” (PLoS ONE, 2019)
